Data on 69 molecules can be found in the supplement of paper PMC4723716.

± gives the uncertainty stated by the source. Over roughly 9,900 compounds, “viability index relative to DMSO control” has its median near 1; the lowest 2% begin near 0.85. The list shows a part of the results.

The assay relates to Plasmodium falciparum NF54 stage V gametocytes. Description: viability index relative to DMSO control (fraction); higher = less gametocyte killing. The settings on record: 2.5 µM, incubation time: 72 h. The gist of the method:
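P. falciparum NF54 stage V gametocytes (serum-free medium, 0.75% gametocytemia, 1.25% hematocrit) were exposed to compound at 2.5 µM for 72 hr at 37°C under low oxygen, then stained with MitoTracker Red CMXRos and saponin for one to two hours. Red particles of 20–70 µm2 in one field per well were counted, and the viability index is that count scaled to the plate mean of solvent-only wells.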

The mark [1] stands for this setting: library set: Broad Institute DOS.

On to `Cc1cccc(S(=O)(=O)N[C@@H]2CC[C@H](CCNC(=O)Nc3cc(F)ccc3F)O[C@@H]2CO)c1`, for which the viability index under setting [1] turned out to be 1.07 ± 0.046.
On the same count and under the same terms, the result for `COc1ccc2c3c([C@H](CO)N(CC4CC4)C[C@]33CN(C3)C(=O)CC3CC3)n(C)c2c1` reads 0.938 ± 0.14; that for `CCS(=O)(=O)N1C[C@@]2(C1)CN(CC1CCOCC1)[C@H](CO)c1c2c2ccc(OC)cc2n1C`, 0.985 ± 0.037; that for `C/C=C/c1ccc([C@H]2[C@@H](CO)N(C(=O)c3cnccn3)C23CN(C(=O)C2CCC2)C3)cc1`, 1.06 ± 0.014.
Molecule `CC(=O)NC[C@H]1[C@@H](c2ccc(-c3cccnc3)cc2)[C@@H](CO)N1C(=O)CC1CC1` had a viability index under setting [1] of 1.03 ± 0.12.
On the same count and under the same terms, the result for `COc1ccc2c3c([C@H](CO)N(Cc4cc(OC)cc(OC)c4)C[C@]33CCN(CC3)C(=O)Nc3c(C)noc3C)n(C)c2c1` reads 0.854 ± 0.04.
Still for that read-out and setting: under `C[C@@H]1CN([C@H](C)CO)C(=O)Cc2cc(NC(=O)c3ccncc3)ccc2O[C@H]1CN(C)C(=O)Nc1ccc(F)cc1` stands 0.944 ± 0.12; under `CO[C@@H]1CN(C)C(=O)c2ccc(NS(=O)(=O)c3ccc(C)cc3)cc2OC[C@H](C)N(C)C[C@@H]1C`, 1.09 ± 0.012.
Same read-out and setting: under `CCCNC(=O)N1CC2(C1)[C@H](c1ccccc1)[C@@H](CO)N2C(=O)c1cccnc1` stands 1.04 ± 0.019; under `COCCNC(=O)C[C@H]1CC[C@@H]2[C@H](COC[C@H](O)CN2Cc2ccc(Cl)c(Cl)c2)O1`, 1.13 ± 0.039.
In the case of `O=C(C[C@@H]1CC[C@H]2NC[C@@H](O)COC[C@@H]2O1)N1CCc2ccccc2C1`, under setting [1], the viability index came to 1.12 ± 0.068.
`CCCNC(=O)C[C@H]1CC[C@@H]2[C@H](COC[C@H](O)CN2C(=O)c2ccc(F)cc2)O1` yielded a viability index under setting [1] of 1.04 ± 0.098.
The same measure, in the same setting: under `C[C@@H]1CNC(=O)[C@H](Cc2ccc(C(F)(F)F)cc2)CCn2nncc2COC1` stands 1.03 ± 0.017; under `C[C@@H]1CN([C@H](C)CO)C(=O)c2cccc(N(C)C)c2O[C@@H]1CN(C)C(=O)Nc1ccc(F)cc1`, 0.857 ± 0.19; under `COCC#Cc1ccc([C@H]2[C@@H](CO)N3C(=O)CN(C(=O)c4ccncc4)C[C@@H]23)cc1`, 1.09 ± 0.031.
The same measure, in the same setting: the result for `O=C(C[C@@H]1C=C[C@H](NC(=O)Nc2ccccc2F)[C@H](CO)O1)NCc1ccc(-c2ccccc2)cc1` reads 1.06 ± 0.13; that for `C/C=C/c1ccc2n(c1=O)C[C@H]1[C@H](CO)[C@@H](C(=O)NCC)N(Cc3cccc(F)c3)[C@@H]21.C/C=C\c1ccc2n(c1=O)C[C@H]1[C@H](CO)[C@@H](C(=O)NCC)N(Cc3cccc(F)c3)[C@@H]21`, 1.096 ± 0.0075.
On the same count and under the same terms, under `CC(C)C#Cc1ccc([C@@H]2[C@@H](CO)N3C(=O)CN(C(=O)Cc4ccccc4)C[C@H]23)cc1` stands 1.04 ± 0.039.
Regarding `CN1c2ccc(Br)cc2[C@@H]2[C@@H](CCN2C(=O)CN2CCOCC2)[C@H]1CO`, the viability index under setting [1] stood at 1.1 ± 0.059.
The same measure, in the same setting: under `O=C(NCc1cc(F)cc(F)c1)[C@@H]1[C@@H](CO)[C@@H]2Cn3c(cccc3=O)[C@H]1N2C(=O)c1cnccn1` stands 1.04 ± 0.042; under `CCCC(=O)Nc1ccc2c(c1)OC[C@@H](C)N(S(=O)(=O)c1cn(C)cn1)C[C@H](C)[C@H](OC)CN(C)C2=O`, 1.04 ± 0.036.
On the same count and under the same terms, the result for `COc1ccc(S(=O)(=O)Nc2ccc3c(c2)C(=O)N([C@H](C)CO)C[C@@H](C)[C@@H](CN(C)S(=O)(=O)c2ccc(Cl)cc2)OCCCC[C@@H](C)O3)cc1` reads 0.533 ± 0.11; that for `CC(C)CC#Cc1ccc([C@H]2[C@H](CO)N3C(=O)CN(C(=O)c4ccccn4)C[C@@H]23)cc1`, 1.06 ± 0.037; that for `O=C(C[C@@H]1CC[C@@H](NC(=O)C2CCOCC2)[C@H](CO)O1)NCC1CCCCC1`, 1.13 ± 0.11.
On the same count and under the same terms, the result for `CNC[C@@H]1OCCCC[C@@H](C)Oc2ccc(NS(=O)(=O)c3ccc(F)cc3)cc2C(=O)N([C@H](C)CO)C[C@@H]1C` reads 1.11 ± 0.02; that for `CCC(=O)N1[C@@H](CO)[C@@H]2c3ccccc3N(S(=O)(=O)c3ccc(F)cc3)C[C@@H]21`, 1.02 ± 0.053.
`O=C(C[C@H]1C[C@H]2c3cc(NC(=O)C4CCOCC4)ccc3O[C@H]2[C@H](CO)O1)NCCN1CCCCC1` showed a viability index under setting [1] of 1 ± 0.046.
Still for that read-out and setting: the result for `CCCNC(=O)[C@H]1[C@H](CO)[C@H]2Cn3c(ccc(C4=CCCCC4)c3=O)[C@H]2N1Cc1ccccc1F` reads 0.916 ± 0.027; that for `CO[C@H]1CN(C)C(=O)c2cc(NS(=O)(=O)c3ccc(Cl)cc3)ccc2OC[C@H](C)N(C(=O)NC(C)C)C[C@@H]1C`, 1.06 ± 0.04.
The same measure, in the same setting: the result for `COc1ccc(C[C@@H]2CCc3cnnn3COC[C@H](CC(C)C)NC2=O)cc1` reads 1.02 ± 0.11; that for `Fc1cccc(-c2ccc([C@@H]3[C@H]4CNC[C@@H]3N4Cc3ccccn3)cc2)c1`, 1 ± 0.015.
Molecule `COc1ccc2c3c([nH]c2c1)[C@@H](CO)N(Cc1ccncc1)C[C@]31CCN(CC2CCOCC2)CC1` showed a viability index under setting [1] of 1.01 ± 0.07.
On the same count and under the same terms, under `CN(C)C(=O)[C@H]1[C@H](CO)[C@H]2Cn3c(ccc(C4=CCCC4)c3=O)[C@@H]1N2S(=O)(=O)c1cn(C)cn1` stands 1.02 ± 0.083; under `N#C[C@H]1N[C@@H](CO)[C@@H]1c1ccc(-c2cccc(F)c2)cc1`, 1.07 ± 0.12.
Molecule `C[C@H]1CN([C@@H](C)CO)C(=O)Cc2cc(N(C)C)ccc2O[C@@H]1CN(C)C(=O)NC1CCCCC1` registered a viability index under setting [1] of 0.883 ± 0.058.
For `CCCNC(=O)N[C@H]1C=C[C@H](CC(=O)N2CCN(C)CC2)O[C@H]1CO`, under setting [1], the viability index was 0.9004 ± 0.0063.
The molecule `O=C(c1cccc(F)c1)N1CC(=O)N2[C@H](CO)[C@H](c3ccc(-c4cccnc4)cc3)[C@H]2C1` had a viability index (library set: Broad Institute Blood Stage) of 0.771 ± 0.058.
For the molecule `O=C(c1cccnc1)N1CC2(C1)[C@H](c1ccccc1)[C@@H](CO)N2C(=O)CC1CC1`, the viability index under setting [1] turned out to be 1.1 ± 0.046.
As to `CO[C@H]1CN(C)C(=O)c2cc(NC(=O)Nc3cccc(Cl)c3)ccc2OC[C@@H](C)N(C(=O)Nc2c(C)noc2C)C[C@@H]1C`, the viability index under setting [1] was found to be 1.04 ± 0.042.
Still for that read-out and setting: under `C[C@@H]1CCCCO[C@H](CN(C)S(=O)(=O)c2ccc(F)cc2)[C@H](C)CN([C@H](C)CO)C(=O)c2cc(N(C)C)ccc2O1` stands 1.04 ± 0.18; under `O=C(C1CCC1)N1C[C@@H]2N[C@H](C1)[C@H]2c1ccc(/C=C/c2ccccc2)cc1`, 1.02 ± 0.042.
Same read-out and setting: under `CN(C)CC(=O)N[C@@H]1CC[C@H](CCNC(=O)C2CCC2)O[C@H]1CO` stands 1.05 ± 0.18.
On the same count and under the same terms, under `Cc1noc(C)c1NC(=O)N1C[C@@H](O)COC[C@@H]2O[C@H](CC(=O)N3CCc4ccccc4C3)CC[C@H]21` stands 1.08 ± 0.11.
Molecule `C[C@@H](NC(=O)C[C@@H]1CC[C@H]2[C@@H](COC[C@@H](O)CN2Cc2ccc(C(F)(F)F)cc2)O1)c1ccccc1` returned a viability index under setting [1] of 1.13 ± 0.07.
In turn, `N#C[C@@H]1[C@H](c2ccccc2-c2ccccc2)[C@H](CO)N1C(=O)Cc1ccncc1` displayed a viability index under setting [1] of 1.08 ± 0.13.
The same measure, in the same setting: the result for `C/C=C/c1ccc([C@@H]2[C@@H](CO)N(C(=O)c3ccccc3)C23CN(C(C)=O)C3)cc1` reads 1.09 ± 0.056; that for `COc1ccc2c3c([C@@H](CO)N(C)C[C@]33CCN(CC3)C(=O)NC(C)C)n(C)c2c1`, 1.04 ± 0.012; that for `COCCN(C[C@@H]1[C@@H](c2ccccc2)[C@H](CO)N1C(=O)C1CC1)C(C)=O`, 1.02 ± 0.022.
In turn, `COc1ccc2c3c([C@H](CO)N(C[C@]33CN(Cc4ccncc4)C3)C(=O)CC3CC3)n(C)c2c1` showed a viability index under setting [1] of 1.11 ± 0.096.
In the case of `CN1C(=O)c2cc(NC(=O)Cc3cccs3)ccc2OC[C@H]2O[C@@H](CC(=O)NCc3ccc(-c4ccccc4)cc3)CC[C@H]21`, the viability index under setting [1] turned out to be 1.09 ± 0.09.
On the same count and under the same terms, under `C[C@@H]1CN([C@@H](C)CO)C(=O)c2cccc(NC(=O)Nc3ccc(C(F)(F)F)cc3)c2O[C@@H]1CN(C)S(=O)(=O)c1cn(C)cn1` stands 1.04 ± 0.037; under `Cc1noc(C)c1S(=O)(=O)N(C)C[C@H]1Oc2c(NS(=O)(=O)c3cn(C)cn3)cccc2C(=O)N([C@@H](C)CO)C[C@H]1C`, 0.958 ± 0.086.
The same measure, in the same setting: the result for `C/C=C/c1ccc([C@H]2[C@H]3CNC[C@@H]2N3C(=O)Nc2ccccc2Cl)cc1` reads 1.11 ± 0.077; that for `CCS(=O)(=O)N1C[C@@]2(C1)CN([C@H](CO)c1[nH]c3cc(OC)ccc3c21)S(=O)(=O)c1cccc(OC)c1`, 1.04 ± 0.12.
As for `C[C@H](CO)N1C[C@H](C)[C@@H](CN(C)Cc2cccc(C(=O)O)c2)OCc2ccccc2-c2ccccc2C1=O`, under setting [1], the viability index was found to be 1.04 ± 0.024.
Same read-out and setting: under `CCC(=O)N1C[C@]2(CN(C2)C(C)=O)c2c([nH]c3cc(OC)ccc23)[C@@H]1CO` stands 1.01 ± 0.069; under `C[C@H](CO)N1C[C@H](C)[C@H](CN(C)S(=O)(=O)c2ccc(Cl)cc2)Oc2ccc(NS(=O)(=O)c3cccs3)cc2C1=O`, 1.02 ± 0.083.
Under setting [1], `CCS(=O)(=O)Nc1ccc2c(c1)C(=O)N(C)[C@H]1CC[C@@H](CC(=O)N3CCN(C)CC3)O[C@H]1CO2` returned a viability index of 1.05 ± 0.039.
With `C[C@@H]1CCCCO[C@@H](CN(C)S(=O)(=O)c2ccc(Cl)cc2)[C@@H](C)CN([C@H](C)CO)C(=O)c2cc(NC(=O)Nc3ccc(C(F)(F)F)cc3)ccc2O1`, the viability index under setting [1] turned out to be 1.07 ± 0.025.
The same measure, in the same setting: the result for `COc1ccccc1S(=O)(=O)N[C@@H]1C=C[C@H](CC(=O)N2CCOCC2)O[C@@H]1CO` reads 1.11 ± 0.13; that for `COc1cccc(NC(=O)N[C@H]2C=C[C@@H](CC(=O)NCc3ccncn3)O[C@@H]2CO)c1`, 1.09 ± 0.059; that for `COCCNC(=O)C[C@@H]1CC[C@@H]2[C@H](COC[C@H](O)CN2Cc2ccc(Cl)c(Cl)c2)O1`, 1.03 ± 0.06.
On to `COC(=O)c1ccc(CN2CC(=O)N3[C@H](CO)[C@H](c4ccc(-c5cccnc5)cc4)[C@H]3C2)cc1`, for which the viability index under setting [1] was 1.06 ± 0.036.
The same measure, in the same setting: under `C/C=C/c1ccc2n(c1=O)C[C@@H]1[C@@H](CO)[C@H](C(=O)NCCC)[C@H]2N1Cc1ccccc1OC.C/C=C\c1ccc2n(c1=O)C[C@@H]1[C@@H](CO)[C@H](C(=O)NCCC)[C@H]2N1Cc1ccccc1OC` stands 1.04 ± 0.025.
Still for that read-out and setting: the result for `CO[C@@H]1CN(C)C(=O)c2ccc(NS(=O)(=O)CC(F)(F)F)cc2OC[C@@H](C)N(Cc2nccs2)C[C@@H]1C` reads 1.12 ± 0.091; that for `CC(=O)N1CC2(C1)[C@@H](c1ccccc1)[C@H](CO)N2C(=O)Cc1ccccc1`, 1.13 ± 0.043.
Still for that read-out and setting: under `C[C@H](NC(=O)C[C@@H]1CC[C@H]2[C@H](COc3ccc(NC(=O)C4CCOCC4)cc3C(=O)N2C)O1)c1ccccc1` stands 1.18 ± 0.089.
Under setting [1], `Cc1noc(C)c1S(=O)(=O)Nc1ccc2c(c1)C(=O)N([C@@H](C)CO)C[C@H](C)[C@@H](CN(C)C(=O)Nc1cccc3ccccc13)OCCCC[C@H](C)O2` showed a viability index of 0.984 ± 0.043.
Same read-out and setting: the result for `O=C(C[C@@H]1C=C[C@H](NC(=O)Cc2ccccn2)[C@H](CO)O1)NCCc1ccncc1` reads 1.02 ± 0.09.
